In the RNAGym collection of RNA variant scans (doi:10.7554/elife.90254):
The source gives no read counts; variants with many changes may rest on few reads.

B1: LINE1-mini (parent)
chain: GGCAGAGCUCAACACAGCGUGGCAAAGUGGCUGUGGCUAGACUGCC

Variants of: B1
Experiment: self-cleavage, relative activity (ratio to wild type); higher = more cleavage; in vitro, sequencing; the parent is a self-cleaving ribozyme

Row | Variant | self-cleavage
1 | C3U A4G A26C U34C U38A C45A | 0.11
2 | C10U C23U G35A | 0.06
3 | G17C U38G C45A | 0.04
4 | G7C A11G U20C | 0.02
5 | C10U C18G A26C U43A | 0.02
6 | G22U A26U G35A C37U | 0.07
7 | C10U G19A G27A U28C U34C | 0.2
8 | C8G A14U G30U U38A | 0.15
9 | U9A A11U G40C | 0
10 | A11U A16U G19A | 0.04
11 | G7U U9C C46U | 0.03
12 | U20C G27A G40C | 0.05
13 | G1U A6G G17A G44A | 0.13
14 | G1C A11U G40U | 0.01
15 | C8A A24C C45A | 0.11
16 | A12U G27U G30C U43C | 0.02
17 | G27C A39U C46U | 0.29
18 | G22A C37G C42U | 0.02
19 | G22U G27C A41G | 0.1
20 | A16G G29A G30A | 0.05
21 | A6G C10A G17A A41C | 0.04

Row | Variant | self-cleavage
22 | C15U C18U G27A | 0.1
23 | G7U C23U A25C G27A C37G | 0
24 | C8A G33U U38A A41U G44U | 0.14
25 | A6G G7U G36U | 0.05
26 | C8G C10A A24G | 0.03
27 | C8A U20A G35C | 0.07
28 | C13G C23A A39U G40U | 0.11
29 | C3G G5U G44C | 0.11
30 | C23A C31G U32G | 0.05
31 | A4G C10G A14C A16C | 0.01
32 | A11G G30A C31A | 0.02
33 | C10A A25U G36C | 0.02
34 | G7C G17A G30C C37G C42U | 0.04
35 | A4G G21U U28C G36C G44A | 0.33
36 | C13A C23G G40A | 0.04
37 | C3G C15G A16C A25C | 0.04
38 | A4C G19C C23U C42A | 0.02
39 | A6C U38G A41U | 0.03
40 | C8U C23G U32A G40C C46U | 0.02
41 | U20G U28C G29U C37U | 0.02
42 | G19C G22U U32A | 0.07

Row | Variant | self-cleavage
43 | A4C A6U G36A | 0.15
44 | U9C G17A U28G C37U | 0
45 | G2C A6G U9G C10A G19C G36A C45U | 0.01
46 | A4G G22A G27A G29U A39U | 0.11
47 | G2A C3U C8U | 2.29
48 | G5A G7U C45U | 0.14
49 | C10G C23A G27U | 0.02
50 | C8G A11G C18U G21C G30U G35U C46U | 0.01
51 | G22U G27C G29A U32A | 0.26
52 | C15U C18A C42A | 0.05
53 | G17U G27U A39C | 0.01
54 | G17U G19U G22A A24G G27A C45G | 0.28
55 | G5C C15U G40A A41C | 0.08
56 | A6U G7U C8A A39U | 0.04
57 | C13A G35C C37G | 0.01
58 | G1A A11C A12G G17U C37A | 0.02
59 | A6G U9C G29A G35C | 0.13
60 | A24G G36C U43A | 0.05
61 | G1U U20C C31U | 0.03
62 | G7U G33U G35A A39G | 0.39
63 | G7A A16C G19C G30C U38C | 0.29

Row | Variant | self-cleavage
64 | A4U G21C C42U | 0.05
65 | G2C A6C C13U C15A A41U | 0.03
66 | G2A G22U G29A U32G G35C A41U | 0.05
67 | A16U C18U G36U | 0.13
68 | G21C G33U A39G | 0.08
69 | C3G G33U G36U U43A | 0.19
70 | G2U G7A U20C G27A G29U | 0.02
71 | C13G G27U A39G | 0.1
72 | C15U A25U C31G | 0.03
73 | C10A A11G C46A | 0.02
74 | G29C G30C C46A | 0.17
75 | G1C G7U A12C G19A U20G | 0.02
76 | G21U U32A C46A | 0.07
77 | C18A C23U G40U | 0.02
78 | C10U C13U U34C | 0.01
79 | C10A C15U C46A | 0
80 | G21A C37A A41U | 0.2
81 | G2U G19U G29U G36C G44U | 0.03
82 | C3A A39G A41G | 0.02
83 | C8G U20G C23A | 0.04
